In PubChem BioAssay AID504333 (National Center for Advancing Translational Sciences (NCATS), 2011):
Screen size: about 360,000 compounds; about 16,000 (4.4%) were called active. The inconclusive results got no clear call from the source; some entries with a clear call stand among them for comparison. The call rests on the fitted dose curve; in most records, active means well fitted inhibition curve with a large enough effect; inconclusive means small, poorly fitted or top-dose-only effect; inactive means no such curve, though single readings can be large or run the other way. A potency beside an inconclusive call is a rough fit, not a confirmed value.

The molecules below were run against Bromodomain adjacent to zinc finger domain protein 2B (Homo sapiens) (UniProt Q9UIF8) (assay: qHTS Assay for Inhibitors of BAZ2B). Conditions: AlphaScreen BAZ2B-H3K14Ac peptide displacement; activity change, negative = inhibition: at 114 µM (top of the series).
UniProt Q9UIF8, sequence (Q9UIF8 whole entry, looked up, the tested form may be a part): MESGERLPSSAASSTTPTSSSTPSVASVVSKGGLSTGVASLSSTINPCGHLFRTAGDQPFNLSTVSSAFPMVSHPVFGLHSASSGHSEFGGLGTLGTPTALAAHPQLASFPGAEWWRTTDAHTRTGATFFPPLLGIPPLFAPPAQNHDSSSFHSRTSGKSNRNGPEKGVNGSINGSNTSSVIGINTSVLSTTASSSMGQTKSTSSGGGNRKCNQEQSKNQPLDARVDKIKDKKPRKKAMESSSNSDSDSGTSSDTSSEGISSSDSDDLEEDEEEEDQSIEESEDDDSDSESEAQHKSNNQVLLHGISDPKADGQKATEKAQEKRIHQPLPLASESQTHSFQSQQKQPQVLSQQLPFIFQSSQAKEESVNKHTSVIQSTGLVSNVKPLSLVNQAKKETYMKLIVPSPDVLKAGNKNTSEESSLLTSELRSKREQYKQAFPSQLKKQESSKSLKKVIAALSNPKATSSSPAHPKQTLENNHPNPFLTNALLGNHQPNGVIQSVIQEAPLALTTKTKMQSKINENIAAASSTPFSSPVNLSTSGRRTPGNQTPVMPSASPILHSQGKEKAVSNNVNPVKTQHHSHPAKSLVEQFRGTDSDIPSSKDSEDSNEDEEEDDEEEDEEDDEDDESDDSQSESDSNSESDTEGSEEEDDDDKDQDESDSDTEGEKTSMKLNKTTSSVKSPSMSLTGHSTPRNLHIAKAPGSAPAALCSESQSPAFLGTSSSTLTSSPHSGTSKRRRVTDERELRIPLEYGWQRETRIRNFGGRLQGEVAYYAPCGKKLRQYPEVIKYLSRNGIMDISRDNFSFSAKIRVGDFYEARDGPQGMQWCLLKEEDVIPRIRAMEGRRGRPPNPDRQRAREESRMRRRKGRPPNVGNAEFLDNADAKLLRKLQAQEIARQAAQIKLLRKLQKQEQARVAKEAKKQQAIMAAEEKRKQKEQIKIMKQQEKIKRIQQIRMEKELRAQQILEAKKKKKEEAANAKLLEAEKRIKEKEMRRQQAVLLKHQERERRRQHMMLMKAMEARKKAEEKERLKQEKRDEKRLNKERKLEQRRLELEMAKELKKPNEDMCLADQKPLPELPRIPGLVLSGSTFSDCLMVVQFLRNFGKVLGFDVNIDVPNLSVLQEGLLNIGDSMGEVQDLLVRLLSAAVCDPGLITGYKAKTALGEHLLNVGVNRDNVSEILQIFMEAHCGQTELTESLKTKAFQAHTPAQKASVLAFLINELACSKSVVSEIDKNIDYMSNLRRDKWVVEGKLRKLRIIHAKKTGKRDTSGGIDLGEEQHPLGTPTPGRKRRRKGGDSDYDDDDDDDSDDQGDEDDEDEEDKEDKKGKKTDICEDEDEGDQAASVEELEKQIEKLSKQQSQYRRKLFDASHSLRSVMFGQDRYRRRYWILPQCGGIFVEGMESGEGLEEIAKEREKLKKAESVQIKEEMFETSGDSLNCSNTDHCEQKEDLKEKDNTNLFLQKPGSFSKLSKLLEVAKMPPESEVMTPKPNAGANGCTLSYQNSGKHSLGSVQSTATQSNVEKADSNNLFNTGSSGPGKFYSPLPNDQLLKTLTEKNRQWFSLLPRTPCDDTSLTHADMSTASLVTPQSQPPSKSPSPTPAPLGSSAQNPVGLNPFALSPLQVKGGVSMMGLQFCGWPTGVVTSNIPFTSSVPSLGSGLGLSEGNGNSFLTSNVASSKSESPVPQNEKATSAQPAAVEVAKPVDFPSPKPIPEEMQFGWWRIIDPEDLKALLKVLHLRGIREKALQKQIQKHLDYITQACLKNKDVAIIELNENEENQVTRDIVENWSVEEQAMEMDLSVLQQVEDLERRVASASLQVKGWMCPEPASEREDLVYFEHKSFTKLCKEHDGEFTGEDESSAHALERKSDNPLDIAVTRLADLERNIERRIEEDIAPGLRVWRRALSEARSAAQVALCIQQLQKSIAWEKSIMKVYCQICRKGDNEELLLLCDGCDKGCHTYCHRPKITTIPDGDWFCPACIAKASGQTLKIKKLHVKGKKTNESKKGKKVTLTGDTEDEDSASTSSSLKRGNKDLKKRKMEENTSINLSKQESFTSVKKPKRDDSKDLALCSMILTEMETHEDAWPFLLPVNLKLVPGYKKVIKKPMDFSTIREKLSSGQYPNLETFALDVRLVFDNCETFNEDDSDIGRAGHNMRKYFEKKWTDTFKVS
Method in brief: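 BAZ2B (50 nM) with biotin-H3(5-23)K14Ac peptide (50 nM) in PBS pH 7.4, 0.01% Tween-20, preformed 30 min, then compound 30 min at room temperature; top concentration 110uM. AlphaScreen streptavidin donor/nickel chelate acceptor beads (10 ug/mL final), 20 min dark, signal read.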
Further: nearly all actives have a fitted effect of over 60% in size.
On the % scale 0 is the no-effect control and ±100 the full control effect; potency means the concentration at half of the fitted maximal effect; tags describe the fitted curve by direction and shape.

Row | Compound | activity change, negative = inhibition | Potency
1 | CCOC(=O)C1CCN(S(=O)(=O)c2ccc3[nH]c(=O)c(=O)[nH]c3c2)CC1 | inactive: -8.1% | 
2 | Cc1ccc(S(=O)(=O)c2c(Nc3cc(C)ccc3C)sc(C(=O)c3ccc4c(c3)OCO4)c2N)cc1 |  | inconclusive: 50.1 µM [inhibitor, partial curve]
3 | CCn1cnc2cc(NCc3cccc(OC)c3O)ccc21 |  | inconclusive: 89.1 µM [inhibitor, single point]
4 | CC(C(=O)N1c2ccccc2CC1C)N1CCN(S(=O)(=O)c2ccccc2F)CC1 (stereo not drawn) |  | active: 28.2 µM
5 | COc1ccc(C2C=C(c3cccs3)Nc3nc(CCCO)nn32)cc1 (stereo not drawn) |  | inconclusive: 44.7 µM [inhibitor, partial curve]
6 | CCCCCCCC[n+]1cccc(C(=O)N2c3c(nc(N)[nH]c3=O)NC(C)C2C)c1 (stereo not drawn) |  | inconclusive: 89.1 µM [inhibitor, single point]
7 | O=C(O)CC/C(=C\c1cccc(NC(=O)c2ccccc2Cl)c1)c1nc2ccccc2s1 |  | inconclusive: 89.1 µM [inhibitor, single point]
8 | COc1ccccc1OCc1ccc(C(=O)N2CCN3CCCC3C2)cc1 (stereo not drawn) |  | inconclusive: 100 µM [inhibitor, single point]
9 | CCn1c(SCC(=O)N2c3ccccc3Sc3ccccc32)nnc1-c1ccco1 |  | inconclusive: 50.1 µM [inhibitor, partial curve]
10 | CCOc1ccc(Cl)cc1CN1CCOCC1 | inactive: -17.3% | 
11 | CCN(CC)CCCOc1nc(C)nc2c1oc1ccccc12 |  | inconclusive: 89.1 µM [inhibitor, single point]
12 | COc1ccc(CC(=O)Nc2ccc(NC(=O)c3ccccc3F)cc2)cc1 |  | inconclusive: 89.1 µM [inhibitor, single point]
13 | COc1cccc(OC)c1OCCOc1ccccc1OC(C)C | inactive: 8.05% | 
14 | Oc1ccc(/C=N/N2CCN(C3c4ccccc4-c4ccccc43)CC2)cc1O |  | active: 39.8 µM
15 | COc1ccc(OC)c(NC(=O)CSc2ncc3c(n2)-c2ccccc2N(C)S3(=O)=O)c1 |  | inconclusive: 35.5 µM [inhibitor, full curve, poor fit]
16 | Cc1oc(-c2cc(F)ccc2F)nc1CN1CCN(c2cnccn2)CC1 |  | active: 70.8 µM
17 | COc1cc(/C=N/N2CCN(Cc3ccccc3)CC2)cc(OC)c1OC(C)=O |  | inconclusive: 35.5 µM [inhibitor, partial curve]
18 | CC1CCN(c2ccc(NC(=O)c3ccccc3[N+](=O)[O-])cc2)CC1 |  | inconclusive: 79.4 µM [inhibitor, single point]
19 | CN(C)S(=O)(=O)c1cccc(-c2nn(-c3ccccc3)cc2/C=C2\SC(=S)N(CC(=O)O)C2=O)c1 |  | active: 50.1 µM
20 | Cc1cc(Br)ccc1NCc1ccccn1 |  | active: 15.8 µM
21 | CN(C)/C=N/c1sc2c(c1C#N)CCCCC2 |  | inconclusive: 44.7 µM [inhibitor, partial curve]
22 | COc1cccc2sc(N(CCCN(C)C)C(=O)C(c3ccccc3)c3ccccc3)nc12 |  | inconclusive: 89.1 µM [inhibitor, single point]
23 | O=C(COC(=O)/C=C/c1ccco1)NCCc1ccccc1 |  | inconclusive: 50.1 µM [inhibitor, partial curve]
24 | COc1ccccc1N(CC(=O)Nc1ccc2c(c1)OCO2)S(=O)(=O)c1ccc(C)cc1 |  | inconclusive: 70.8 µM [inhibitor, single point]

Row | Compound | activity change, negative = inhibition | Potency
25 | CC(=O)Nc1cccc(NC(=O)c2ccc3[nH]c(C)c(C)c3c2)c1 | inactive: -25.2% | 
26 | CN(C)S(=O)(=O)c1ccc(N2CCCC2)c(C(=O)Nc2ccc(F)cc2F)c1 | inactive: 7.79% | 
27 | NNC(=S)NCCc1ccccc1 |  | inconclusive: 70.8 µM [inhibitor, single point]
28 | CC1=NN(c2nc3ccccc3[nH]2)C(=O)/C1=C/N(C)C |  | active: 22.4 µM
29 | O=C1Nc2ccccc2/C1=C/C(=O)c1cccs1 |  | active: 35.5 µM
30 | Cc1cc(C)c2nc(NNC(=O)c3ccc(S(=O)(=O)N4CCCCC4)cc3)sc2c1 |  | inconclusive: 3.55 µM [inhibitor, full curve]
31 | O=C(COc1ccccc1Cl)Nc1ccc(N2CCCC2)cc1 | inactive: -38.6% | 
32 | Cc1cc(C)nc(/N=C2/NC(=O)CS2)n1 |  | inconclusive: 89.1 µM [inhibitor, single point]
33 | CN1CCN(/N=C/c2nc(-c3ccc(Cl)cc3)n3ccccc23)CC1 |  | active: 50.1 µM
34 | C=CCN(CC=C)c1nc2ccccc2nc1C(C#N)C(=O)OCCOC (stereo not drawn) | inactive: -31.4% | 
35 | O=C(CN1C(=O)NC(c2ccccc2)(c2ccccc2)C1=O)NC1CCCC1 | inactive: 6.03% | 
36 | COc1ccc(C2CC(c3cccs3)=NN2C(=O)CSc2nnnn2C)cc1OC (stereo not drawn) |  | inconclusive: 89.1 µM [inhibitor, single point]
37 | Cc1c(C(=O)N(C)C2CCCCC2)sc2ncnc(N3CCN(c4ccccc4)CC3)c12 |  | inconclusive: 22.4 µM [inhibitor, full curve]
38 | CCOc1ccc(C(=O)N(Cc2cc(OC)c(OC)c(OC)c2)c2ccccn2)cc1 | inactive: -12.3% | 
39 | CCC(CC)=NNc1ccc([N+](=O)[O-])cc1[N+](=O)[O-] |  | inconclusive: 63.1 µM [inhibitor, partial curve, poor fit]
40 | O=C(CSc1nc(-c2cccs2)nc2cc(=O)[nH]n12)Nc1cccc(C(F)(F)F)c1 |  | active: 50.1 µM
41 | CCc1ccc(OCC(O)CN2CCC(CN3C(=O)c4cccc5cccc(c45)C3=O)CC2)cc1 (stereo not drawn) | inactive: -11.4% | 
42 | CCc1nc2ccccc2c(C(=O)Oc2cccc3cccnc23)c1C |  | inconclusive: 89.1 µM [inhibitor, single point]
43 | CCCCn1c(SCC(=O)O)nc2ccccc21 |  | inconclusive: 89.1 µM [inhibitor, single point]
44 | O=C(NCc1ccccn1)c1cccc(NS(=O)(=O)c2ccccc2F)c1 | inactive: -22.3% | 
45 | NS(=O)(=O)c1ccc(NC(=O)c2c(F)cccc2Cl)cc1 | inactive: -2.97% | 
46 | O=C(COC(=O)c1ccco1)NCCc1ccc(Cl)cc1 | inactive: -2.38% | 
47 | Cc1cc(OCCCn2c(CCNC(=O)C3CCCCC3)nc3ccccc32)ccc1Cl | inactive: -4.1% | 
48 | COc1ccc(N(CC(=O)Nc2cccc(C(C)=O)c2)S(=O)(=O)c2ccccc2)c(OC)c1 |  | inconclusive: 89.1 µM [inhibitor, single point]
